{"source": "paper PMC11995724", "about": "“Antibiotic target discovery by integrated phenotypic and activity-based profiling of electrophilic fragments” (Cell chemical biology, 2025)", "note": "The whole screen tested about 3,200 compounds, of which about 110 (3.4%) showed an effect of 50% or more. This is one part of the list."}
{"test_system": "T1, V. cholerae SAD30", "T1 construct": "SAD30", "set-up": "species or system S. aureus MSSA476 (TSB) or V. cholerae SAD30 (LB); 384-well bacterial growth screen at 25 uM, OD600 relative to DMSO control", "conditions": "relative growth, OD600, LB; 25 µM; inhibitor", "units": {"% of control remaining": "%"}}
{"molecule": "COc1cc(NC(=O)CCl)cc(OC)c1OC", "note": "[4-N12, 2-chloro-N-(3,4,5-trimethoxyphenyl)acetamide]", "% of control remaining": 106.276}
{"molecule": "COc1ccc(NC(=O)C(C)Cl)cc1OC", "note": "(centres unmarked) [6-F12, 2-chloro-N-(3,4-dimethoxyphenyl)propanamide]", "% of control remaining": 83.7236}
{"molecule": "CC(C#N)Oc1ccc(C=C(C#N)C(=O)Nc2ccccc2Cl)cc1", "note": "(centres unmarked) [9-E05, N-(2-chlorophenyl)-2-cyano-3-[4-(1-cyanoethoxy)phenyl]prop-2-enamide]", "% of control remaining": 89.259}
{"molecule": "COc1ccc(-c2csc(NC(=O)CCl)n2)c(O)c1", "note": "[4-A11, 2-chloro-N-[4-(2-hydroxy-4-methoxyphenyl)-1,3-thiazol-2-yl]acetamide]", "% of control remaining": 102.653}
{"molecule": "Cc1csc(CN2CCN(C(=O)C(C)Cl)CC2)n1", "note": "(centres unmarked) [5-H17, 2-chloro-1-{4-[(4-methyl-1,3-thiazol-2-yl)methyl]piperazin-1-yl}propan-1-one]", "% of control remaining": 91.2893}
{"molecule": "COc1ccc(C2CCCN2C(=O)CCl)c(OC)c1", "note": "(centres unmarked) [4-P22, 2-chloro-1-[2-(2,4-dimethoxyphenyl)pyrrolidin-1-yl]ethan-1-one]", "% of control remaining": 115.247}
{"molecule": "C=CC(=O)NCC1CCS(=O)(=O)C1(C)C", "note": "(centres unmarked) [1-O16, N-[(2,2-dimethyl-1,1-dioxo-1lambda6-thiolan-3-yl)methyl]prop-2-enamide]", "% of control remaining": 88.7892}
{"molecule": "C=CC(=O)NC(c1ccccc1)c1nc(C)no1", "note": "(centres unmarked) [1-B13, N-[(3-methyl-1,2,4-oxadiazol-5-yl)(phenyl)methyl]prop-2-enamide]", "% of control remaining": 90.1345}
{"molecule": "C=CC(=O)NC1CCC(S(C)(=O)=O)C1", "note": "(centres unmarked) [3-F18, N-(3-methanesulfonylcyclopentyl)prop-2-enamide]", "% of control remaining": 90.5017}
{"molecule": "CCC(C)(C)C1CCc2c(sc(NC(=O)CCl)c2C#N)C1", "note": "(centres unmarked) [5-A05, 2-chloro-N-[3-cyano-6-(2-methylbutan-2-yl)-4,5,6,7-tetrahydro-1-benzothiophen-2-yl]acetamide]", "% of control remaining": 109.446}
{"molecule": "C=CC(=O)NCc1cc(-c2ccccc2OC)no1", "note": "[2-C18, N-{[3-(2-methoxyphenyl)-1,2-oxazol-5-yl]methyl}prop-2-enamide]", "% of control remaining": 94.0558}
{"molecule": "Cc1c(C=C(C#N)C(=O)NCC2(c3ccccc3)CC2)cc(C#N)n1C", "note": "[8-E22, 2-cyano-3-(5-cyano-1,2-dimethyl-1H-pyrrol-3-yl)-N-[(1-phenylcyclopropyl)methyl]prop-2-enamide]", "% of control remaining": 81.1013}
{"molecule": "CCc1ccc(NC(=O)CCl)cc1", "note": "[4-P03, 2-chloro-N-(4-ethylphenyl)acetamide]", "% of control remaining": 124.218}
{"molecule": "CC(Cl)C(=O)N1CCOCC1c1ncnn1Cc1ccccc1", "note": "(centres unmarked) [7-C08, 1-[3-(1-benzyl-1H-1,2,4-triazol-5-yl)morpholin-4-yl]-2-chloropropan-1-one]", "% of control remaining": 78.5065}
{"molecule": "C=CC(=O)N1CCC(NC(=O)c2oc(C)cc2C)CC1", "note": "[2-K17, 3,5-dimethyl-N-[1-(prop-2-enoyl)piperidin-4-yl]furan-2-carboxamide]", "% of control remaining": 82.0129}
{"molecule": "O=C(CCl)NCc1cccc(NC(=O)C2CC2)c1", "note": "[4-D22, N-{3-[(2-chloroacetamido)methyl]phenyl}cyclopropanecarboxamide]", "% of control remaining": 119.905}
{"molecule": "COc1cc(Cl)c(C)cc1N1C(=O)C=CC1=O", "note": "[10-B15, 1-(4-chloro-2-methoxy-5-methylphenyl)-2,5-dihydro-1H-pyrrole-2,5-dione]", "% of control remaining": 23.534}
{"molecule": "NC(=O)Cc1ccc(C(=O)CCl)s1", "note": "[10-A21, 2-[5-(2-chloroacetyl)thiophen-2-yl]acetamide]", "% of control remaining": 52.5229}
{"molecule": "C=CC(=O)N1CCC(C(=O)N2CCCCC(SCC)C2)CC1", "note": "(centres unmarked) [2-P10, 1-{4-[3-(ethylsulfanyl)azepane-1-carbonyl]piperidin-1-yl}prop-2-en-1-one]", "% of control remaining": 100.695}
{"molecule": "N#CC(=Cc1c2ccccc2cc2ccccc12)C(=O)NC1CCCCC1", "note": "[8-D14, 3-(anthracen-9-yl)-2-cyano-N-cyclohexylprop-2-enamide]", "% of control remaining": 51.3256}
{"molecule": "O=C1CCc2cc(C(=O)CCl)ccc2N1", "note": "[10-M03, 6-(2-chloroacetyl)-1,2,3,4-tetrahydroquinolin-2-one]", "% of control remaining": 23.534}
{"molecule": "CC(C)NC(=O)C(C#N)=Cc1cccc2ccccc12", "note": "[8-P06, 2-cyano-3-(naphthalen-1-yl)-N-(propan-2-yl)prop-2-enamide]", "% of control remaining": 75.119}
{"molecule": "C=CC(=O)NC1(c2ncon2)CCOCC1", "note": "[3-K22, N-[4-(1,2,4-oxadiazol-3-yl)oxan-4-yl]prop-2-enamide]", "% of control remaining": 110.263}
{"molecule": "CC(=O)NCc1ccc(C(=O)C(C)Cl)s1", "note": "(centres unmarked) [10-M04, N-{[5-(2-chloropropanoyl)thiophen-2-yl]methyl}acetamide]", "% of control remaining": 95.6945}
{"molecule": "CC(Cl)C(=O)NC1CCN(S(=O)(=O)c2cnn(C)c2)CC1", "note": "(centres unmarked) [7-O05, 2-chloro-N-{1-[(1-methyl-1H-pyrazol-4-yl)sulfonyl]piperidin-4-yl}propanamide]", "% of control remaining": 83.9253}
{"molecule": "COc1cc(C=C(C#N)C(=O)Nc2nccs2)cc(OC)c1O", "note": "[8-M19, 2-cyano-3-(4-hydroxy-3,5-dimethoxyphenyl)-N-(1,3-thiazol-2-yl)prop-2-enamide]", "% of control remaining": 75.3909}
{"molecule": "C=CC(=O)NCc1ccnc(-n2cncn2)c1", "note": "[3-B18, N-{[2-(1H-1,2,4-triazol-1-yl)pyridin-4-yl]methyl}prop-2-enamide]", "% of control remaining": 109.028}
{"molecule": "C=CC(=O)N[C@H](C)c1cnnn1C", "note": "[3-B11, N-[(1R)-1-(1-methyl-1H-1,2,3-triazol-5-yl)ethyl]prop-2-enamide]", "% of control remaining": 105.852}
{"molecule": "O=C(CCl)Nc1cccc(S(=O)(=O)N=C2CCCCCN2)c1", "note": "[4-D08, N-{3-[(azepan-2-ylidene)sulfamoyl]phenyl}-2-chloroacetamide]", "% of control remaining": 107.656}
{"molecule": "CC(Cl)C(=O)N1CCC(c2nccn2C)C1", "note": "(centres unmarked) [6-F15, 2-chloro-1-[3-(1-methyl-1H-imidazol-2-yl)pyrrolidin-1-yl]propan-1-one]", "% of control remaining": 81.1451}
{"molecule": "CNC(=O)C(C#N)=Cc1ccc(F)cc1", "note": "[9-B14, 2-cyano-3-(4-fluorophenyl)-N-methylprop-2-enamide]", "% of control remaining": 82.7328}
{"molecule": "CC(Cl)C(=O)N(C)C1CCN(C(=O)c2ccccc2)CC1", "note": "(centres unmarked) [6-B18, N-(1-benzoylpiperidin-4-yl)-2-chloro-N-methylpropanamide]", "% of control remaining": 87.5154}
{"molecule": "N#Cc1ccc(OC2CN(C(=O)CCl)C2)cc1", "note": "[5-K07, 4-{[1-(2-chloroacetyl)azetidin-3-yl]oxy}benzonitrile]", "% of control remaining": 141.893}
{"molecule": "Cc1cc(NC(=O)CN(C)C(=O)C(C)Cl)no1", "note": "(centres unmarked) [7-M19, 2-chloro-N-methyl-N-{[(5-methyl-1,2-oxazol-3-yl)carbamoyl]methyl}propanamide]", "% of control remaining": 81.8107}
{"molecule": "Cn1c(-c2ccccc2)c(C(=O)CCl)c2ccccc21", "note": "[10-N04, 2-chloro-1-(1-methyl-2-phenyl-1H-indol-3-yl)ethan-1-one]", "% of control remaining": 95.0711}
{"molecule": "CC(=O)Nc1ccc(C=C(C#N)C(=O)Nc2c(C)cc(C)cc2C)cc1", "note": "[8-M13, 2-cyano-3-(4-acetamidophenyl)-N-(2,4,6-trimethylphenyl)prop-2-enamide]", "% of control remaining": 75.2549}
{"molecule": "CC(Cl)C(=O)Nc1cccc(CSc2ccccn2)c1", "note": "(centres unmarked) [5-B18, 2-chloro-N-{3-[(pyridin-2-ylsulfanyl)methyl]phenyl}propanamide]", "% of control remaining": 74.141}
{"molecule": "N#CC(=Cc1c2ccccc2c(Cl)c2ccccc12)C(N)=O", "note": "[8-N12, 3-(10-chloroanthracen-9-yl)-2-cyanoprop-2-enamide]", "% of control remaining": 53.637}
{"molecule": "CC(c1cnn(C)c1)N(C)C(=O)CCl", "note": "(centres unmarked) [5-M04, 2-chloro-N-methyl-N-[1-(1-methyl-1H-pyrazol-4-yl)ethyl]acetamide]", "% of control remaining": 106.252}
{"molecule": "N#CC(=CN1CCN(c2ccccc2)CC1)C(=O)Nc1ccc(F)cc1", "note": "[8-C20, 2-cyano-N-(4-fluorophenyl)-3-(4-phenylpiperazin-1-yl)prop-2-enamide]", "% of control remaining": 75.3909}
{"molecule": "C=CC(=O)N(C)C1CCN(c2cnccn2)CC1", "note": "[1-B12, N-methyl-N-[1-(pyrazin-2-yl)piperidin-4-yl]prop-2-enamide]", "% of control remaining": 122.424}
{"molecule": "Cc1ccccc1NC(=O)C(C#N)=Cc1cccc2ccccc12", "note": "[8-H09, 2-cyano-N-(2-methylphenyl)-3-(naphthalen-1-yl)prop-2-enamide]", "% of control remaining": 74.1672}
{"molecule": "O=C(CCl)Nc1ccc(Cl)cc1[N+](=O)[O-]", "note": "[5-N08, 2-chloro-N-(4-chloro-2-nitrophenyl)acetamide]", "% of control remaining": 89.9443}
{"molecule": "O=C(CCl)N(Cc1ccc(F)cc1)C1CCCCC1", "note": "[4-I13, 2-chloro-N-cyclohexyl-N-[(4-fluorophenyl)methyl]acetamide]", "% of control remaining": 92.3011}
{"molecule": "C=CC(=O)NCC(OC)C1CCOC1", "note": "(centres unmarked) [3-L19, N-[2-methoxy-2-(oxolan-3-yl)ethyl]prop-2-enamide]", "% of control remaining": 92.619}
{"molecule": "CC(=O)NCc1ccc(C(=O)CCl)o1", "note": "[10-I10, N-{[5-(2-chloroacetyl)furan-2-yl]methyl}acetamide]", "% of control remaining": 118.761}
{"molecule": "O=C(CCl)c1cnc(N2CCCCC2)s1", "note": "[10-L17, 2-chloro-1-[2-(piperidin-1-yl)-1,3-thiazol-5-yl]ethan-1-one]", "% of control remaining": 110.189}
